Measurements: PubChem BioAssay AID1794842 (National Center for Advancing Translational Sciences (NCATS), 2023)
Hit rate of the full screen: of about 2,800 compounds, fewer than 10 were called active. The call rests on the fitted dose curve; in most records, active means well fitted curve in the direction sought with a large enough effect; inconclusive means small, poorly fitted or top-dose-only effect, or another doubt; inactive means no such curve, though single readings can be large or run the other way. The list shows a part of the results.

The compounds below were run against Metallo-beta-lactamase type 2 (Klebsiella pneumoniae) (UniProt C7C422) (assay: qHTS to identify inhibitors of the New Delhi Metallo-beta-lactamase (NDM): Meropenem screen against the machine-based learning selections.). Details: Purified NDM-1, meropenem hydrolysis, absorbance 300 nm; at 38.4 µM (top of the series) unless noted.
Chain of UniProt C7C422 (C7C422 whole entry, looked up): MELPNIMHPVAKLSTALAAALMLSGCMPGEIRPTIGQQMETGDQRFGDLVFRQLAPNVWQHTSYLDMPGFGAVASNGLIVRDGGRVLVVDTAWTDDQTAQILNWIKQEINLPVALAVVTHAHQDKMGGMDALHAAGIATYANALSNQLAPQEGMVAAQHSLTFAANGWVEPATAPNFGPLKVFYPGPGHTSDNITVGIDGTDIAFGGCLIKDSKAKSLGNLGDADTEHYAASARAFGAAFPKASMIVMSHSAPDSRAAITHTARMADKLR
In short: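 Hydrolysis by 2 nM NDM-1 was followed by absorbance after >30 min compound preincubation in HEPES pH 7.0 buffer with 1 uM Zn2SO4. For nitrocefin (16.7 uM, 15 min, 485 nm) and meropenem (50 uM, 30 min, 300 nm), each substrate ran on separate plates.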
Further: % of control where 0% means no effect.

| Structure (SMILES) | activity change, negative = inhibition |
| --- | --- |
| CN1CCC(NC(=O)Cc2c[nH]c3ncc(-c4ccccc4)cc23)CC1 | inactive: -1.82% [at 57.5 µM] |
| C=CCNC(=O)[C@@H]1Cc2cn(Cc3ccncc3)c3cccc(c23)[C@H](CC(C)C)N1 | inactive: 5.07% [at 57.5 µM] |
| CC(C)CCCC1CN(C(=O)c2c(O)cccc2O)CCO1 (configuration not stated) | inactive: 1.74% |
| Cc1nccn1CC(=O)N1CCC2(CC1)CNC(C(=O)O)C2 (configuration not stated) | inactive: 34.4% |
| O=C(Cc1c[nH]c2ncc(-c3ccncc3)cc12)NCc1cccnc1 | inactive: 4.44% [at 57.5 µM] |
| Fc1cccc(Nc2cnc3ccc(-c4ccccc4)nn23)c1 | inactive: 11.1% [at 57.5 µM] |
| CC1(CNCc2ccccc2)COc2ccc(C(=O)Nc3cccnc3)cc2N1 (configuration not stated) | inactive: 3.29% [at 57.5 µM] |
| COc1ccc(CN2CCOC[C@H](OC)C2)cn1 | inactive: 0.0913% [at 76.7 µM] |
| Cc1ccsc1-c1[nH]nc2ncc(-c3cccc(O)c3)nc12 | inactive: 1.53% [at 57.5 µM] |
| FC(F)(F)Oc1ccc(-c2cnc([C@@H]3COCCN3Cc3ccncc3)[nH]2)cc1 | inactive: -3.64% [at 57.5 µM] |
| N[C@@H](Cc1cnc[nH]1)C(=O)N1CCC2(CC1)CN(CCOc1ccccc1)C(=O)O2 | inactive: 16.5% |
| NC(=O)C1(N2CCCCC2)CCN(Cc2cc3n(n2)CCNC3)CC1 | inactive: 58.6% |
| Cc1cc(-c2ccccc2)nc(CN2CC[C@@](O)(C3CCC3)[C@H](C)C2)n1 | inactive: 1.38% |
| OC1(c2csc(CN3CCOCC3)n2)CCN(CC2CCCCC2)CC1 | inactive: -0.222% [at 57.5 µM] |
| Cc1nc2c(c(-c3ccc(Cl)cc3)n1)CCN(C(=O)C1CC1)CC2 | inactive: 0.249% |
| O=C(O)c1cncc(N2CCC3(CC2)CNC(C(=O)O)C3)n1 (configuration not stated) | inactive: 42.7% |
| O=C(NC1CCCCC1)O[C@@H]1CO[C@H]2[C@@H]1OC[C@@H]2NS(=O)(=O)c1ccc(Cl)cc1 | inactive: -0.326% |
| COc1ccc(CC(=O)N(C)Cc2ccc(F)cc2)cc1 | inactive: -0.957% [at 57.5 µM] |
| Cc1ccc(-c2cn3c(n2)CO[C@@H](CNS(=O)(=O)c2cccs2)C3)cc1 | inactive: -1.65% [at 57.5 µM] |
| O=C(O)c1cccc(-c2n[nH]c3c2CC(=O)N(CC2CCOCC2)C3)c1 | inactive: 18.9% [at 57.5 µM] |
| Cc1nc(CN2CCN(c3ncc(F)c(N(C)C)n3)CC2)cs1 | inactive: 27.7% |
| C=CCN1CCN(C(=O)[C@@H]2Cc3c[nH]c4cccc(c34)[C@H](CC(C)C)N2)CC1 | inactive: 4.68% [at 57.5 µM] |
| O=C(NC1CCN(c2cc(-c3ccc(F)cc3)[nH]n2)CC1)c1cccc2[nH]ccc12 | inactive: 0.993% |
| CN(C)c1ccc(C(=O)N2CCN3C(=O)N(Cc4ccccc4)C(=O)[C@H]3C2)cc1 | inactive: 11.3% [at 57.5 µM] |
| CCOCC(=O)N[C@H]1CN(Cc2nc(C)c(C)n2C)C[C@@H]1C(C)C | inactive: 28.1% |
| c1ccc(-c2nc3ccncc3[nH]2)nc1 | inactive: 104% [at 76.7 µM] |

| Structure (SMILES) | activity change, negative = inhibition |
| --- | --- |
| Cc1ccc2c(c1)N1C(=O)OC[C@@H]1CCN(C(=O)Nc1ccccc1)C2 | inactive: -2.46% [at 57.5 µM] |
| CC1=C[C@@H](CNCc2ccc(C#N)cc2)[C@H](C(C)C)C[C@H]1Cc1nnc(-c2cccnc2)o1 | inactive: 1.16% |
| CCOCCn1c(=O)[nH]c2cc(C(=O)NCc3cc(=O)[nH]c(C)n3)ccc21 | inactive: 6.67% |
| CC(C)C(=O)N[C@H]1[C@H](O)[C@H](O)C[C@@H]1c1cccnc1 | inactive: -2.43% [at 76.7 µM] |
| O=C(N[C@H]1CO[C@H]2[C@@H]1OC[C@@H]2n1nnnc1-c1ccc2c(c1)OCO2)c1ccc(C(F)(F)F)cc1 | inactive: 1.02% |
| CN1C(=O)CO[C@H](c2ccc(NC(=O)c3ccc(-c4ccccc4)cc3)cc2)[C@H]1CO | inactive: 0.168% [at 57.5 µM] |
| C=CCNC(=O)[C@@H]1Cc2cn(Cc3c(C)noc3C)c3cccc(c23)[C@H](CC(C)C)N1 | inactive: 6.46% [at 57.5 µM] |
| O=C(Cc1c[nH]c2ncc(-c3cccc(O)c3)cc12)N1CCOCC1 | inactive: 5.97% [at 57.5 µM] |
| Cc1nc2ccc(C(=O)NCc3cc4n(n3)CCN(C(=O)N(C)C)C4)cc2o1 | inactive: -0.171% |
| COc1cc2c(cc1CN1C[C@@H]3CC[C@H](C1)N(CC1CCC1)C3=O)OCCO2 | inactive: -4.4% |
| CC(C)(C)c1ccc(NC(=O)O[C@@H]2CO[C@H]3[C@@H]2OC[C@@H]3Nc2nccc(-c3ccccc3)n2)cc1 | inactive: 0.647% |
| CCOC(=O)N1CCN(C(=O)C(c2ccccc2C)N(C)C)CC1 (configuration not stated) | inactive: 0.817% |
| O=C(O)C[C@@H]1CCN(C(=O)c2ccnc(Cl)c2)C[C@@H]1CCN1CCN(c2cccc(C(F)(F)F)c2)CC1 | inactive: 27.5% |
| COc1cc2c(cc1OC)C(C[C@H]1CN(C(=O)c3ccc(N(C)C)cc3)CC[C@H]1CC(=O)O)=NCC2 | inactive: 23.1% |
| CN(Cc1ccc(F)cc1)c1ccc2ncc(Nc3ccc(CCO)cc3)n2n1 | inactive: 66.1% [at 57.5 µM] |
| OCc1ccc(-c2cc(-c3cccnc3)c3cncn3c2)cc1 | inactive: 17.5% [at 57.5 µM] |
| O=C(c1ccccc1)N1CCC(c2nn(-c3ccccc3)c(=O)[nH]2)CC1 | inactive: 3.37% |
| COc1ccc2nc3n(c2c1)[C@@H](CNCc1ccccc1)COC3 | inactive: 4.42% [at 57.5 µM] |
| CC(C)CN(C)C(=O)c1cc(-c2cnn(C(C)C)c2)nc2cc(F)ccc12 | inactive: 1.1% |
| O=C(CSc1ccncc1)N1CCN2C(=O)N(Cc3ccccc3)C(=O)[C@H]2C1 | inactive: 27.2% [at 57.5 µM] |
| COc1ccc(NC(=O)Cn2c(N(C)Cc3ccccc3)nc(C)cc2=O)cc1Cl | inactive: -1.01% |
| COCc1cc(=O)n(CC(=O)Nc2cccc(Cl)c2)c(N2CCOCC2)n1 | inactive: 0.573% |
| COc1ccc(CN(C)Cc2ccncc2C)c(OCC(O)CN2CCCC2)c1 (configuration not stated) | inactive: 1.89% |
| CN1CCOc2c(C(=O)NCc3cccnc3)cc(-c3ccccc3O)cc21 | inactive: 0.385% [at 57.5 µM] |
| Cc1ccccc1-c1cnc2n[nH]c(-c3ccccc3)c2n1 | inactive: 2.04% [at 76.7 µM] |
| C[S+](=O)([O-])Nc1cccc(Nc2ncc(-c3cccc(F)c3)c3c2OCC3)c1 | inactive: 3.1% [at 57.5 µM] |

| Structure (SMILES) | activity change, negative = inhibition |
| --- | --- |
| COc1ccc(C[C@H](NC(=O)[C@@]2(O)C[C@@H](O)[C@H](O)[C@@H](NC(=O)CS(=O)(=O)c3ccccc3)C2)C(N)=O)cc1 | inactive: -2.25% |
| Cc1ccc(C)c(-c2cc(C(=O)N3CCCC3c3nncn3C(C)C)[nH]n2)c1 (configuration not stated) | inactive: 4.81% |
| CS(=O)(=O)N1CCc2ccc(C(=O)NCCN3CCc4ccccc4C3)cc21 | inactive: 12.7% |
| O=C(Nc1cccc(C(F)(F)F)c1)c1cnc2c(c1)N(Cc1ccccc1)CCC2 | inactive: 2.2% [at 57.5 µM] |
| OC1(CNCc2csc3ccc(Cl)cc23)CNCCOC1 (configuration not stated) | inactive: 6.85% |
| O=C1NC[C@@H](CCC(=O)N2CCc3ccccc32)N2C[C@@H](NCc3ccc(CO)o3)C[C@@H]12 | inactive: -0.747% |
| CCCCCC(=O)Nc1nc2c(s1)C[C@@H]1[C@](C)(CO)[C@H](O)CC[C@@]1(C)[C@@H]2CC(=O)NCc1cc(F)cc(F)c1 | inactive: -2.82% |
| CN1c2cccnc2CN(Cc2ccccn2)CC[C@H]1CO | inactive: 7.37% [at 57.5 µM] |
| O=C(C[C@@H]1O[C@H](CNC(=O)c2ccccc2)[C@@H](O)[C@H]1O)Nc1ccccc1 | inactive: -2.83% [at 57.5 µM] |
| O=C1NCC2(CCCN(C(=O)CCc3ccc(=O)[nH]n3)C2)O1 (configuration not stated) | inactive: 1.87% |
| CN1c2cc(C(=O)N3CCN(c4ccc(F)cc4)CC3)ccc2C(=O)N2CCCCCC21 (configuration not stated) | inactive: 1.01% |
| COc1ccnc(CN2CCC3(CC2)CN(CCOc2ccccc2)C(=O)O3)c1OC | inactive: 0.0276% |
| CNC(=O)c1cc(-c2ccccc2O)cc2c1OCCN2Cc1cccnc1 | inactive: -0.427% [at 57.5 µM] |
| CC(c1ccc(-c2ccc(CC(=O)O)cn2)cc1)N1CCCCC1 (configuration not stated) | inactive: -1.23% |
| COCc1cc(C[C@@H]2CC[C@H](O)[C@@H](CNC(=O)C(C)(C)C)O2)no1 | inactive: -0.975% [at 57.5 µM] |
| CCOc1ccc2c(n1)CCN(C(=O)Nc1cc(C)cc(C)c1)C2 | inactive: -2.06% |
| Cc1ccccc1-c1cc(O)c2c(c1)CNCCO2 | inactive: 0.257% |
| O=C1CC(c2ccccc2)N(C(=O)C2CC2)CCCN(C(=O)NCc2ccccc2)CCN1 (configuration not stated) | inactive: 0.78% |
| NC(=O)c1ccc(O[C@@H]2COCC[C@H]2NC(=O)Cc2ccc(O)cc2)cc1 | inactive: -0.7% |
| O=C(Cc1c[nH]c2ncc(-c3cccnc3)cc12)NC1CC1 | inactive: 12.5% [at 76.7 µM] |
| Cc1ccc2c(C)c(C(=O)N3CC[C@H](O)[C@@H](O)C3)oc2c1 | inactive: 9.82% |
| CN1CCCN(C[C@@H]2CN(C(=O)c3ccnn3C)C[C@@H]2CO)CC1 | inactive: 3.84% |
| COc1ccc(CN2CCNc3cc(Nc4ccccc4)ncc3C2)cc1O | inactive: -0.934% [at 57.5 µM] |
| O=C1CO[C@H](c2ccc(NC(=O)C3CCOCC3)cc2)[C@@H](CO)N1 | inactive: 1.11% [at 57.5 µM] |
| Cc1nn(C)c2nc(-c3ccccn3)nc(NCc3ccc4c(c3)OCO4)c12 | inactive: 13.4% |
